Holding throughout (assay): co-IP; HEK293T cells co-transfected with receptor-BioID2-HA (or BioID alone) and Myc-tagged candidate; lysis in 50 mM Tris-HCl pH 8.0, 1% NP40, 0.5% deoxycholate, 0.1% SDS, 150 mM NaCl, 5 mM EDTA; anti-HA on G-Sepharose beads, 4 °C, 4 h; anti-Myc blot; SREB1 with EPB41L2 also with 15 µM ID5217941 (no difference)
For assay [1], the target named is SREB2-BioID (human SREB2/GPR85 fused to 3×(GGGGS)-linker, BioID2 and HA tag) (human) (UniProt P60893).
The target of assay [2] is SREB3-BioID (human SREB3/GPR173 fused to 3×(GGGGS)-linker, BioID2 and HA tag) (human) (UniProt Q9NS66).
For assay [3], the target named is T1, CMKLR1-BioID (human CMKLR1, chemerin receptor, fused to 3×(GGGGS)-linker, BioID2 and HA tag) (human) (UniProt Q99788).
T1 sequence: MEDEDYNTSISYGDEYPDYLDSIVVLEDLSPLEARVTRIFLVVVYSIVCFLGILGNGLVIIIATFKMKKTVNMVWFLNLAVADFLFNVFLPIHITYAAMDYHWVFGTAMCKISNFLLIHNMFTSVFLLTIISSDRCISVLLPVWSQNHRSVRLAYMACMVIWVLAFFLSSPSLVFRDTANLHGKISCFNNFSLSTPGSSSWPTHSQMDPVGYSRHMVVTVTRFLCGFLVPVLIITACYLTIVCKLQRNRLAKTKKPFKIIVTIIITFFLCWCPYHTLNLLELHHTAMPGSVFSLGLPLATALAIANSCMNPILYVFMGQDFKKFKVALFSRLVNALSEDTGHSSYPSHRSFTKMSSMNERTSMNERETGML

Chains of the proteins cited; added tags and fusions are not shown.
UniProt P60893: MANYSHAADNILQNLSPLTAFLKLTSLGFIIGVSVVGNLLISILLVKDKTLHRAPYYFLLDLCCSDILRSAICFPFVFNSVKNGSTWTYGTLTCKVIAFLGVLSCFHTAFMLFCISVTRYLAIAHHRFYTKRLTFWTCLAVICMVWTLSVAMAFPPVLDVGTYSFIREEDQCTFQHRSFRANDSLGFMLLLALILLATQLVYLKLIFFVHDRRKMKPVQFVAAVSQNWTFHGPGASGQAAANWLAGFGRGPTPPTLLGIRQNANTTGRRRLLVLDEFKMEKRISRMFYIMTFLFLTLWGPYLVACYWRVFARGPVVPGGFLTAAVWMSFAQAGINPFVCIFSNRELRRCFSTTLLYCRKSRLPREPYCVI
UniProt Q9NS66: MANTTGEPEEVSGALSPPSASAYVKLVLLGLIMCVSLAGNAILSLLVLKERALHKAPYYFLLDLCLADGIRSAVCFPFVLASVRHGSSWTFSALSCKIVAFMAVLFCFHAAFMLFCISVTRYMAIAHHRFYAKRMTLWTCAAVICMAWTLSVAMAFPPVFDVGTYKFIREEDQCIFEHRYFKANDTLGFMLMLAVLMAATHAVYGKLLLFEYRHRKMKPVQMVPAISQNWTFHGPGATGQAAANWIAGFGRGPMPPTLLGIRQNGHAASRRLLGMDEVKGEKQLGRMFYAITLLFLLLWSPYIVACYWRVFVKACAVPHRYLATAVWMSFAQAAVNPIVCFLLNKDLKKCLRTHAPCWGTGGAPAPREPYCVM
UniProt Q9NS67: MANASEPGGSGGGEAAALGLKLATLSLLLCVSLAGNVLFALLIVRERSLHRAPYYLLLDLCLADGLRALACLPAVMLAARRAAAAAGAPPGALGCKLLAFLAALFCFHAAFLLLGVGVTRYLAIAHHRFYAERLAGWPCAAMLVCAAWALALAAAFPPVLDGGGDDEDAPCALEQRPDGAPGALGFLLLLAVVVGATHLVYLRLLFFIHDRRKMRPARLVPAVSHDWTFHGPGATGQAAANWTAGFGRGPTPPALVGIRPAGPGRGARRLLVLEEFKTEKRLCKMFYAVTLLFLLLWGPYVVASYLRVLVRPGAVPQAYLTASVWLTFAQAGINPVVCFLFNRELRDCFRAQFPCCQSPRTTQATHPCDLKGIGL
UniProt O43491: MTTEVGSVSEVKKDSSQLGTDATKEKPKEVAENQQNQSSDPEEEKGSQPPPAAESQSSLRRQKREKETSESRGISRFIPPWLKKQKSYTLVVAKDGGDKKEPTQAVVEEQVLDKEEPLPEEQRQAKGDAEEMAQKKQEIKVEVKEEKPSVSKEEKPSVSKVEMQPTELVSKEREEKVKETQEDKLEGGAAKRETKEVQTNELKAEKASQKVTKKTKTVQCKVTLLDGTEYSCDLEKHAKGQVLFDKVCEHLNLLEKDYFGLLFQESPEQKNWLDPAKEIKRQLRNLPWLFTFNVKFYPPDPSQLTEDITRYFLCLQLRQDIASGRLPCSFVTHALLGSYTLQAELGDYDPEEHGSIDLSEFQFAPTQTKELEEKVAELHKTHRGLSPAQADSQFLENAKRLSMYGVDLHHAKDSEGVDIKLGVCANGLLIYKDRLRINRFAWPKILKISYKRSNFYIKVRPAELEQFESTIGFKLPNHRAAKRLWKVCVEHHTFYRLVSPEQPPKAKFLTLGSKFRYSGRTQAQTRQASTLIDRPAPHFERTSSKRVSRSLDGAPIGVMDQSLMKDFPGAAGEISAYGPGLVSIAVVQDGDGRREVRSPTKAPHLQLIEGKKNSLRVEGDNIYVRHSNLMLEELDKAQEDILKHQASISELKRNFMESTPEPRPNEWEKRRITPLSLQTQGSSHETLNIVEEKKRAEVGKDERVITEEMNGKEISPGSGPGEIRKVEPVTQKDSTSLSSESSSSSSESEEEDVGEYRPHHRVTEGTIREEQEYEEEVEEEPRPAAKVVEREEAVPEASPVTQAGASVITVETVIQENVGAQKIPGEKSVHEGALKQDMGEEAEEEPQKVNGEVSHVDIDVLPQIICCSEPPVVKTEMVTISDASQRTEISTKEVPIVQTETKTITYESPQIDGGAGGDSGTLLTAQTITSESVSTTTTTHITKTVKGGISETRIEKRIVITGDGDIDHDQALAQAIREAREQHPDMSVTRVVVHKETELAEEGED
UniProt Q9Y2J2: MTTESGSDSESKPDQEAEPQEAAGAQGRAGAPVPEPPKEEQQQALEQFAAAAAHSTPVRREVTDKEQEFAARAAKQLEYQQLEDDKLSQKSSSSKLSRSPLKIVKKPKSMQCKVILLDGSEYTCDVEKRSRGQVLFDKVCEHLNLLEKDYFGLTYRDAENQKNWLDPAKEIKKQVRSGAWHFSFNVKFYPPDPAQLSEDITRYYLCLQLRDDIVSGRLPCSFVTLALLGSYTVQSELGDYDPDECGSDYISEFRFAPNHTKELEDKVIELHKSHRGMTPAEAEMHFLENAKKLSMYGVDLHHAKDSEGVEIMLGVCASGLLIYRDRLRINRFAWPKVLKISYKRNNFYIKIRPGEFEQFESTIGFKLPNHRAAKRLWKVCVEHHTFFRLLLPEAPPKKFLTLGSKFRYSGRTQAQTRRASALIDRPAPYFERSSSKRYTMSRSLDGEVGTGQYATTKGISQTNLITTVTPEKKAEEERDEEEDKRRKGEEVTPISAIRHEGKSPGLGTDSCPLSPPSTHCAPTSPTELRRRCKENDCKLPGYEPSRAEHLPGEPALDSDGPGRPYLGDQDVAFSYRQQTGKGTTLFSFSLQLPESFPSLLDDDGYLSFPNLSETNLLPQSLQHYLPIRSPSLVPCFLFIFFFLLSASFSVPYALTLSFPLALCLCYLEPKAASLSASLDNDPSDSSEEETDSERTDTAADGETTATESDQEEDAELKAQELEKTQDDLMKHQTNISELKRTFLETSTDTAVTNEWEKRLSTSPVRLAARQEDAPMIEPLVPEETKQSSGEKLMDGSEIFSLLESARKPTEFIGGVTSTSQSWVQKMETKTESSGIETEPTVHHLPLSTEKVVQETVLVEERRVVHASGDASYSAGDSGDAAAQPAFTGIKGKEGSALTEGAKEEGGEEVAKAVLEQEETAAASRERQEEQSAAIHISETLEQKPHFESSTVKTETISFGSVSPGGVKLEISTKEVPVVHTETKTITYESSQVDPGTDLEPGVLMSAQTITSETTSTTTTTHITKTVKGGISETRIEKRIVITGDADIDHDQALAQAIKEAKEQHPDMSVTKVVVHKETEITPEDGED

For assay [4], the target named is SREB1-BioID (human SREB1/GPR27 fused to 3×(GGGGS)-linker, BioID2 and HA tag) (human) (UniProt Q9NS67).

No constants are given. Whether binding was seen depends on the method and setting. In cells and extracts the contact can be indirect. Some binding calls cover weakened binding; strength is not graded here. For some of these results: Sequences can lack the tags named with a protein.

On to “EPB41L2-Myc (full-length EPB41L2, C-terminally Myc-tagged) (from UniProt O43491 1-1005)”, for which the binding result in assay [1], in assay [2], in assay [3] and in assay [4] was “binds” throughout.
For the molecule “EPB41L3-Myc (full-length EPB41L3, C-terminally Myc-tagged) (from UniProt Q9Y2J2 1-1087)”, the binding entry in assay [2] is reported as “binds”.
For the molecule “LRBA domain 3 (1865–2576 aa), C-terminally Myc-tagged (from UniProt P50851 1865-2576) (domain or fragment)”, the binding result in assay [1] and in assay [3] was “binds” each time.

B1: LRBA domain 2 (748–1864 aa), C-terminally Myc-tagged (domain or fragment, UniProt P50851 748-1864)
chain: KHLAPKRKAEVMLGHGLFSLLAERLMLQTNLITMTTYNVLFEILIEQIGTQVIHKQHPDPDSSVKIQNPQILKVIATLLRNSPQCPESMEVRRAFLSDMIKLFNNSRENRRSLLQCSVWQEWMLSLCYFNPKNSDEQKITEMVYAIFRILLYHAVKYEWGGWRVWVDTLSITHSKVTFEIHKENLANIFREQQGKVDEEIGLCSSTSVQAASGIRRDINVSVGSQQPDTKDSPVCPHFTTNGNENSSIEKTSSLESASNIELQTTNTSYEEMKAEQENQELPDEGTLEETLTNETRNADDLEVSSDIIEAVAISSNSFITTGKDSMTVSEVTASISSPSEEDASEMPEFLDKSIVEEEEDDDYVELKVEGSPTEEANLPTELQDNSLSPAASEAGEKLDMFGNDDKLIFQEGKPVTEKQTDTETQDSKDSGIQTMTASGSSAMSPETTVSQIAVESDLGQMLEEGKKATNLTRETKLINDCHGSVSEASSEQKIAKLDVSNVATDTERLELKASPNVEAPQPHRHVLEISRQHEQPGQGIAPDAVNGQRRDSRSTVFRIPEFNWSQMHQRLLTDLLFSIETDIQMWRSHSTKTVMDFVNSSDNVIFVHNTIHLISQVMDNMVMACGGILPLLSAATSATHELENIEPTQGLSIEASVTFLQRLISLVDVLIFASSLGFTEIEAEKSMSSGGILRQCLRLVCAVAVRNCLECQQHSQLKTRGDKALKPMHSLIPLGKSAAKSPVDIVTGGISPVRDLDRLLQDMDINRLRAVVFRDIEDSKQAQFLALAVVYFISVLMVSKYRDILEPQNERHSQSCTETGSENENVSLSEITPAAFSTLTTASVEESESTSSARRRDSGIGEETATGLGSHVEVTPHTAPPGVSAGPDAISEVLSTLSLEVNKSPETKNDRGNDLDTKATPSVSVSKNVNVKDILRSLVNIPADGVTVDPALLPPACLGALGDLSVEQPVQFRSFDRSVIVAAKKSAVSPSTFNTSIPTNAVSVVSSVDSAQASDMGGESPGSRSSNAKLPSVPTVDSVSQDPVSNMSITERLEHALEKAAPLLREIFVDFAPFLSRTLLGSHGQELLIEGTSLVCMKSSSSVVELVMLLCSQEWQN
Turning to B1, in assay [1], the binding result is “no binding”.

B2: LRBA domain 1 (1–747 aa), C-terminally Myc-tagged (domain or fragment, UniProt P50851 1-747)
chain: MASEDNRVPSPPPTGDDGGGGGREETPTEGGALSLKPGLPIRGIRMKFAVLTGLVEVGEVSNRDIVETVFNLLVGGQFDLEMNFIIQEGESINCMVDLLEKCDITCQAEVWSMFTAILKKSIRNLQVCTEVGLVEKVLGKIEKVDNMIADLLVDMLGVLASYNLTVRELKLFFSKLQGDKGRWPPHAGKLLSVLKHMPQKYGPDAFFNFPGKSAAAIALPPIAKWPYQNGFTFHTWLRMDPVNNINVDKDKPYLYCFRTSKGLGYSAHFVGGCLIVTSIKSKGKGFQHCVKFDFKPQKWYMVTIVHIYNRWKNSELRCYVNGELASYGEITWFVNTSDTFDKCFLGSSETADANRVFCGQMTAVYLFSEALNAAQIFAIYQLGLGYKGTFKFKAESDLFLAEHHKLLLYDGKLSSAIAFTYNPRATDAQLCLESSPKDNPSIFVHSPHALMLQDVKAVLTHSIQSAMHSIGGVQVLFPLFAQLDYRQYLSDEIDLTICSTLLAFIMELLKNSIAMQEQMLACKGFLVIGYSLEKSSKSHVSRAVLELCLAFSKYLSNLQNGMPLLKQLCDHVLLNPAIWIHTPAKVQLMLYTYLSTEFIGTVNIYNTIRRVGTVLLIMHTLKYYYWAVNPQDRSGITPKGLDGPRPNQKEMLSLRAFLLMFIKQLVMKDSGVKEDELQAILNYLLTMHEDDNLMDVLQLLVALMSEHPNSMIPAFDQRNGLRVIYKLLASKSEGIRVQALKAMGYFL
For the molecule B2, in assay [1], the binding entry is given as “no binding”.

B3: LRBA domain 4 (2577–2863 aa), C-terminally Myc-tagged (domain or fragment, UniProt P50851 2577-2863)
chain: SNTGMHRRQITDLLDQSIQVHSQCFVITSDNRYILVCGFWDKSFRVYSTDTGRLIQVVFGHWDVVTCLARSESYIGGNCYILSGSRDATLLLWYWNGKCSGIGDNPGSETAAPRAILTGHDYEVTCAAVCAELGLVLSGSQEGPCLIHSMNGDLLRTLEGPENCLKPKLIQASREGHCVIFYENGLFCTFSVNGKLQATMETDDNIRAIQLSRDGQYLLTGGDRGVVVVRQVSDLKQLFAYPGCDAGIRAMALSYDQRCIISGMASGSIVLFYNDFNRWHHEYQTRY
With B3, in assay [1], the binding entry was “no binding”.

Values taken from PMC10670248.
